# Data reported in the supplement of paper PMC12297408.
# Structures can show the parent of a compound that is named as a salt. Among all 1,300 compounds or so, about 40 (3%) showed activity. This is one part of the list.
# Tested on: Plasmodium falciparum NF54/iGP1_RE9H ulg8 stage V gametocytes
# Test: gametocyte viability (luciferase signal relative to DMSO control) (% of DMSO control); higher = less gametocytocidal activity, active = 50 or less
# Conditions: exposure time: 72 h
# Outline: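 NF54/iGP1_RE9Hulg8 stage V gametocytes (day 12; ~2.5% gametocytemia, 3% hematocrit) were incubated with compounds at 10 µM or 1 µM final, in one well each, for 72 h at 37 °C in medium with 0.5% Albumax II. Luminescence after D-luciferin addition was read on an IVIS Lumina II. Viability refers to the mean of plate DMSO vehicle wells.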
Structure (SMILES),gametocyte viability (concentration: 1 µM),gametocyte viability (concentration: 10 µM)
O=C1c2cccc3c2[C@H](CCC3)CN1[C@@H]1CN2CCC1CC2 [Palonosetron hydrochloride],inactive: 85.5,inactive: 81.6
NCC[C@H](O)C(=O)N[C@@H]1C[C@H](N)[C@@H](O[C@H]2O[C@H](CN)[C@@H](O)[C@H](O)[C@H]2O)[C@H](O)[C@H]1O[C@H]1O[C@H](CO)[C@@H](O)[C@H](N)[C@H]1O [Amikacin hydrate],inactive: 86.2,inactive: 85.6
CC(C)C(=O)Nc1ccc([N+](=O)[O-])c(C(F)(F)F)c1 [Flutamide],inactive: 83.9,inactive: 81.9
Cn1cnc([N+](=O)[O-])c1Sc1ncnc2[nH]cnc12 [Azathioprine],inactive: 89.3,inactive: 90.5
CN(C)[C@@H]1C(=O)C(C(N)=O)=C(O)[C@@]2(O)C(=O)C3=C(O)c4c(O)ccc(Cl)c4[C@@H](O)[C@H]3C[C@@H]12 [Demeclocycline hydrochloride],inactive: 95.2,inactive: 90.1
OCCN1C[C@H](O)[C@@H](O)[C@H](O)[C@H]1CO [Miglitol],inactive: 78.3,inactive: 81.3
CC(=O)SCC(Cc1ccccc1)C(=O)NCC(=O)OCc1ccccc1 (centres undefined) [Racecadotril],inactive: 95.8,inactive: 93.3
C[C@H](CCC(=O)O)[C@H]1CC[C@H]2[C@@H]3CC[C@@H]4C[C@H](O)CC[C@]4(C)[C@H]3CC[C@]12C [Lithocholic acid],inactive: 96.2,inactive: 98.8
COC(=O)C1=C(C)NC(C)=C(C(=O)OC(C)C)C1c1cccc2nonc12 (centres undefined) [Isradipine],inactive: 84.4,inactive: 86.2
COCC(=O)Nc1c(I)c(C(=O)NCC(O)CO)c(I)c(C(=O)N(C)CC(O)CO)c1I (centres undefined) [Iopromide],inactive: 85.6,inactive: 85.9
O=C(O)CCCC[C@@H]1SC[C@@H]2NC(=O)N[C@@H]21 [Biotin],inactive: 77.5,inactive: 86.4
CC1COc2c(N3CCN(C)CC3)c(F)cc3c(=O)c(C(=O)O)cn1c23 (centres undefined) [Ofloxacin],inactive: 85.5,inactive: 85.7
CCN1CC(CCN2CCOCC2)C(c2ccccc2)(c2ccccc2)C1=O (centres undefined) [Doxapram hydrochloride],inactive: 79.8,inactive: 82
OCc1cc(C(O)CNCCCCCCOCCCCc2ccccc2)ccc1O (centres undefined) [Salmeterol],inactive: 93.8,inactive: 79.7
CC(=O)OCC(=O)[C@@]12N=C(C)O[C@@H]1C[C@H]1[C@@H]3CCC4=CC(=O)C=C[C@]4(C)[C@H]3[C@@H](O)C[C@@]12C [Deflazacort],inactive: 95.7,inactive: 104
O=C(O)Cc1sc(-c2ccccc2)nc1-c1ccc(Cl)cc1 [Fentiazac],inactive: 93.4,inactive: 90.3
CC(=O)Nc1ccc(CC(=O)O)cc1 [Actarit],inactive: 91.6,inactive: 94.8
C=C1c2c(Cl)ccc(O)c2C(O)=C2C(=O)[C@]3(O)C(O)=C(C(N)=O)C(=O)[C@@H](N(C)C)[C@@H]3[C@@H](O)[C@H]12.O=C(O)c1cc(S(=O)(=O)O)ccc1O [Meclocycline sulfosalicylate],inactive: 80.9,inactive: 83.5
CNCCC(Oc1ccc(C(F)(F)F)cc1)c1ccccc1 (centres undefined) [Fluoxetine hydrochloride],inactive: 83,inactive: 87

Structure (SMILES),gametocyte viability (concentration: 1 µM),gametocyte viability (concentration: 10 µM)
Cc1nc2n(c(=O)c1CCN1CCC(c3noc4cc(F)ccc34)CC1)CCCC2 [Risperidone],inactive: 97,inactive: 96.5
CCn1cc(C(=O)O)c(=O)c2cnc(N3CCCC3)nc21 [Piromidic acid],inactive: 86.5,inactive: 85.3
O=S(=O)(O)CCS [Mesna],inactive: 85.6,inactive: 85.9
CC(C)(C)NC[C@H](O)c1ccc(O)c(CO)c1 [Levalbuterol hydrochloride],inactive: 80.9,inactive: 81.4
O=C(O)c1cc(-c2ccc(F)cc2F)ccc1O [Diflunisal],inactive: 82,inactive: 81.1
CCCCNC(=O)NS(=O)(=O)c1ccc(C)cc1 [Tolbutamide],inactive: 84.9,inactive: 88.4
CC(=O)[C@H]1CC[C@H]2[C@@H]3C[C@H](C)C4=CC(=O)CC[C@]4(C)[C@H]3[C@@H](O)C[C@]12C [Medrysone],inactive: 80.1,inactive: 75.8
CCOC(=O)OC(C)OC1=C(C(=O)Nc2ccccn2)N(C)S(=O)(=O)c2ccccc21 (centres undefined) [Ampiroxicam],inactive: 81.1,inactive: 83.1
CC1(C)NC(=O)N(c2ccc([N+](=O)[O-])c(C(F)(F)F)c2)C1=O [Nilutamide],inactive: 95.8,inactive: 92.3
COC(=O)[C@@H]1[C@H]2C[C@H]3c4[nH]c5ccccc5c4CCN3C[C@@H]2CC[C@@H]1O [Yohimbine hydrochloride],inactive: 97.2,inactive: 94.4
CCCCC(CC)CNC(=N)NC(=N)NCCCCCCNC(=N)NC(=N)NCC(CC)CCCC (centres undefined) [Alexidine dihydrochloride],active: 36.2,active: 0.515
COc1ccc2cc([C@@H](C)C(=O)O)ccc2c1 [(R) -Naproxen sodium salt],inactive: 87.1,inactive: 81.3
Nc1nc(=O)c2c([nH]1)NC[C@@H](CNc1ccc(C(=O)N[C@@H](CCC(=O)O)C(=O)O)cc1)N2C=O [Folinic acid calcium salt],inactive: 94.7,inactive: 91.7
CCCCOc1cc(C(=O)NCCN(CC)CC)c2ccccc2n1 [Dibucaine],inactive: 83.9,inactive: 80.8
O=C1CCc2cc(OCCCCc3nnnn3C3CCCCC3)ccc2N1 [Cilostazol],inactive: 90.8,inactive: 95.7
CCS(=O)(=O)CCn1c([N+](=O)[O-])cnc1C [Tinidazole],inactive: 97.9,inactive: 95.4
CCC1=C(C)CN(C(=O)NCCc2ccc(S(=O)(=O)NC(=O)N[C@H]3CC[C@H](C)CC3)cc2)C1=O [Glimepiride],inactive: 97.7,inactive: 101
CC(=O)N(CC(C)C(=O)O)c1c(I)cc(I)c(N)c1I (centres undefined) [Iocetamic acid],inactive: 81.2,inactive: 85.1
COc1cc(C(=O)NC2CCCNC2)cc(OC)c1OC (centres undefined) [Troxipide],inactive: 96.8,inactive: 94.3

Structure (SMILES),gametocyte viability (concentration: 1 µM),gametocyte viability (concentration: 10 µM)
C[C@]12CC[C@@H]3c4ccc(O)cc4CC[C@H]3[C@@H]1CCC2=O [Estrone],inactive: 99.2,inactive: 96.4
CCOC(=O)C1=C[C@]2(CC)CCCN3CCc4c(n1c1ccccc41)[C@@H]32 [Vinpocetine],inactive: 86.2,inactive: 87.6
Cc1cccc(CN2CCN(C(c3ccccc3)c3ccc(Cl)cc3)CC2)c1 (centres undefined) [Meclozine dihydrochloride],inactive: 86.3,inactive: 81.3
O=C(O)CCC(=O)Nc1ccc(S(=O)(=O)Nc2nccs2)cc1 [Succinylsulfathiazole],inactive: 95.6,inactive: 96.7
COc1cnc(NS(=O)(=O)c2ccc(N)cc2)nc1 [Sulfameter],inactive: 90.3,inactive: 94.4
CCCCC(C)(O)C/C=C/[C@H]1[C@H](O)CC(=O)[C@@H]1CCCCCCC(=O)OC (mixture of isomers) [Misoprostol],inactive: 82.4,inactive: 81.9
CNCCC(Oc1ccccc1OC)c1ccccc1 (centres undefined) [Nisoxetine hydrochloride],inactive: 89.1,inactive: 95.5
COc1ccccc1O [Guaiacol],inactive: 80.8,inactive: 86.9
CCCCCCCN(CC)CCCC(O)c1ccc(NS(C)(=O)=O)cc1 (centres undefined) [Ibutilide fumarate],inactive: 93,inactive: 92.8
COc1ccc(-c2cc(=O)c3c(O)cc(O[C@@H]4O[C@H](CO[C@@H]5O[C@@H](C)[C@H](O)[C@@H](O)[C@H]5O)[C@@H](O)[C@H](O)[C@H]4O)cc3o2)cc1O [Diosmin],inactive: 88.9,inactive: 86.4
CC1CS(=O)(=O)CCN1/N=C/c1ccc([N+](=O)[O-])o1 (centres undefined) [Nifurtimox],inactive: 81.3,inactive: 63.1
CN1CC2c3ccccc3Oc3ccc(Cl)cc3C2C1 (centres undefined) [Asenapine maleate],inactive: 94.7,inactive: 101
c1ccc2[nH]c(-c3cscn3)nc2c1 [Tiabendazole],inactive: 95.2,inactive: 92.9
CO/N=C(\C(=O)N[C@@H]1C(=O)N2C(C(=O)O)=C(C[N+]3(C)CCCC3)CS[C@H]12)c1csc(N)n1 [Cefepime hydrochloride],inactive: 78.9,inactive: 82.2
CCOC(=O)[C@H](CCc1ccccc1)N[C@@H](C)C(=O)N1CCC[C@H]1C(=O)O [Enalapril maleate],inactive: 81.9,inactive: 86.7
CN(C)CCCO[C@@H]1[C@H]2OC(C)(C)O[C@H]2O[C@@H]1[C@H](O)CO [Amiprilose hydrochloride],inactive: 97.3,inactive: 92.5
C[C@]12CC[C@@H]3c4ccc(O)cc4CC[C@H]3[C@@H]1C[C@@H](O)[C@@H]2O [Estriol],inactive: 94.6,inactive: 92.2
CC[N+](CC)(CC)CCC(O)(c1ccccc1)C1CCCCC1 (centres undefined) [Tridihexethyl chloride],inactive: 95.7,inactive: 100
CCc1cccc2c3c([nH]c12)C(CC)(CC(=O)O)OCC3 (centres undefined) [Etodolac],inactive: 94.3,inactive: 95.8
